# Some of the results follow.
# Tested on: PfSIP2 AP2 domain 1 (GST-tagged)
# Experiment: gcPBM binding intensity (ln(normalized median fluorescence intensity)); higher = stronger DNA binding
# Summary of the method: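 An Agilent 4 × 180k array carrying primer-extended double-stranded 36-bp intergenic genomic probes and negative controls received GST-tagged P. falciparum DNA-binding domains expressed in E. coli, about 25 μg on average, for 1 h. The binding buffer contained 1× PBS, 1% milk, 0.2 mg/ml BSA, 0.5% salmon testes DNA and 0.03% Triton X-100. Binding intensity is the top Masliner-normalised natural-log median intensity across replicate spots of either probe orientation, read after Alexa488 anti-GST antibody staining and a 488 nm scan.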
row,Sequence,gcPBM binding intensity (ln)
1,AAAAATAACATATAAACACACATATATATATATATA [CACACA_site3802],9.31
2,TACATAAAATATATCACACATATAATATATATATAT [CACACA_site5834],8.89
3,AAAAAAAAAAAAAAATATAAATATATATATATATAT [GTGCAC_negctrl_site28],9.5
4,AAACGAACATATAAATGTACATATATATACATATAT [XGTACX_site8086],7.26
5,AATTAAATATTATAAACACACATATATATTATTTTT [CACACA_site865],6.85
6,TATGTATTAAATTTTACACACATGATTCTCTATATA [CACACA_site2298],6.91
7,ATTGTAAATATAGAAGTGCAAAAGGGTATGAAATGA,8.24
8,TACAAAAAAAATGTATTTAGGACATATATATGTTTA [XGTACX_negctrl_site455],6.73
9,AAAGTATATAGGATACGTACATACATAAATAAATAA [XGTACX_site8216],7.01
10,GTACAAAATTGACAAGTGCAAAAATTAAAAGCAAGA [GTGCAC_site9838],8.67
11,ATATATATATAAATATGTACATATATTTATTTCTTT [XGTACX_site3784],8.8
12,TATAAAAATAAGCACACACACAAATATAGATTTATT [CACACA_site6558],6.98
13,GTGTGAGCACATTCGGGAGAGTTTTTTTTTTTTTTT [CACACA_negctrl_site1776],7.31
14,TATATTCAAAATGGTACACACAATATTTAATTGTGC [CACACA_site2631],6.86
15,TGACATATAAAATATTCACACACAAGTTATAGTTCT [CACACA_site9209],6.71
16,ACATTTTCTTATAAATGTACATATATATTATTATAT [XGTACX_site4404],7.04
17,TTAATAGAAATACGTGCACACTAAAGGGAAAACAAT [CACACA_site4923],9.89
18,ACAAGTATTAATTACACACTCAAAAAGAAAAAACAA [CACACA_site2281],6.92
19,ATATATTCTATATATACATGCATATATATTATATGT [TGCATGCA_site185],7.04

row,Sequence,gcPBM binding intensity (ln)
1,TGAATAAATATGCAGCGTACATAATCCTCTTAAAAT [XGTACX_site8462],6.87
2,GTTAAATGAAAATATGTACACACTTGAAAATTTTTA [CACACA_site2924],7.09
3,ATGCAACTATATATATATATTATATGTATGAATAAT [XGTACX_negctrl_site434],7.16
4,TATATATACACACACACATGCATGCCGATATATATA [TGCATGCA_site29],7.06
5,AAAAGATATTTGAATATACACACGATTTAAATTTAA [CACACA_site3865],6.73
6,AAAGATTTAATCTATACATGCAAATATATAGAAAAG [TGCATGCA_site373],6.93
7,AATAAAAATAGGAAATGTACACATATATATATATAT [XGTACX_site1853],8.81
8,AGATGCCAAGTATAAAGTACATATCAAAATGTATAT [XGTACX_site456],6.95
9,GAACAAAATTTTATATGTACATAATATTTATATATA [XGTACX_site3667],7.05
10,TTATTTTATTTTTATACACACATGTTTTAATGTTCA [CACACA_site249],7.01
11,AAAACTTTTAAAATTTTGTATTCATTCCTTCAACAA [GTGCAC_negctrl_site697],6.77
12,TTTATAATTCCATAATGTACAAATAAAATAAAAAAT [XGTACX_site663],7.2
13,AGGAGGATAGTTCACAGTACCCAGTAACTCTACGAG [XGTACX_site2008],6.55
14,AAAATTAATGTTGGTTGTACAAAAATTAAATATGGT [XGTACX_site66],7.55
15,GTACAAAGGACTATACATAGAAAAATATATATATAT [XGTACX_negctrl_site164],9.08
16,GAAAAAAAAAAAAAAAGTACATTCTCTATTTCATGT [XGTACX_site3209],6.83
17,ATAAATTTAAATAGGAGTACACAGCTTTATATTTTG [XGTACX_site4176],7.45
18,TAATTACCATATGGTACACACATATTTATAGGTATA [CACACA_site7603],7.04
19,CGCGCACCCAGACACACACACACACCCATATATATA [CACACA_site2203],10.8

row,Sequence,gcPBM binding intensity (ln)
1,ACGTATAATATGTACACACACATATATACCAAAAAA [CACACA_site4661],7.53
2,GATAAAATAATATATAGTACTTTTTTAAAATAAATA [XGTACX_site522],7.1
3,TATAAAACACACACACATATATATATATATTTATAT [TGCATGCA_negctrl_site48],7.27
4,AATTTTAAATTTAATTTACACACTTTTCATAGCATT [CACACA_site9264],6.92
5,ATTTACAAAAATTTTGTATAAAGGGATTTTAAAATG [TGCATGCA_negctrl_site350],7.18
6,TTTTTTTTTTCTCCTGCATGCAGCATTTATATATTA [TGCATGCA_site390],6.93
7,TATATATATATATATACATGCATTTTTGTTTGCTTA [TGCATGCA_site256],9.38
8,GACAACGTTTCAATGTGTACATATTTATAATATATA [XGTACX_site2427],7.06
9,ATTGAAAAACCGTTTAGTACATATCATCACGTTTGT [XGTACX_site1295],6.88
10,TATATATATATATGTACACACATCAATCATATTAAC [CACACA_site1946],9.47
11,TTTTTTTTTTTTTTTACACACTGCATACAAGAAAAA [CACACA_site5642],7.04
12,AAAATACGAATATAAACATGCACCATATAGAACAAA [TGCATGCA_site925],10.7
13,TAAAATAAAATAAGTAGTACATATATAATTATATAT [XGTACX_site6733],7.36
14,TACAAATATAGATGCACACACATATACATACCTATA [CACACA_site7094],7.11
15,TTTTTACAAAAAAAAAAAAAAAAAATAAAAATAAAT [CACACA_negctrl_site1738],6.6
16,GACGTGGAAAAAAAAACACACACAAAAAAAAAAAAA [CACACA_site9324],7.11
17,TGAACATCATTTTTATGTACACACACATATACGTTG [XGTACX_site3864],7.06
18,AAAACAAACAAAAAAAAAAAAAAAAATATCAATCTA [TGCATGCA_negctrl_site203],6.52

# Reference: the supplement of paper PMC11417369
